Reference: a compilation of properties of binary mixtures (doi:10.1016/j.molliq.2010.01.009)
The densities may have been worked out from excess volumes.

Test: xn = mol fraction of the nth substance listed
Conditions: 101 kPa

COCCOCCOCCOCCOC + CCCC[n+]1ccn(C)c1.F[P-](F)(F)(F)(F)F
mass density [kg/m3]
Conditions	298.15 K	308.15 K	318.15 K
x1 = 0.0116	1363.7	1355.2	1346.7
x1 = 0.0395	1354	1345.5	1337
x1 = 0.0915	1336.5	1328	–
x1 = 0.1755	1309.1	1300.7	1292.2
x1 = 0.251	1284.4	1275.9	1267.5
x1 = 0.3493	1251.4	1243	–
x1 = 0.4587	1213.6	–	1196.5
x1 = 0.5624	1177	1168.3	1159.6
x1 = 0.6647	1140.4	1131.6	1122.8
x1 = 0.7563	1106.5	1097.7	1088.8
x1 = 0.8794	1058.5	1049.5	–
x1 = 0.9414	–	1022.9	1013.7
x1 = 0.9721	1018.1	–	–
x1 = 1	1004.8	–	986.2
x2 = 0.0128	1010.9	1001.7	992.4

CCCC[n+]1ccn(C)c1.F[P-](F)(F)(F)(F)F + COCCOCCOCCOC
x2 = 0
Conditions	mass density [kg/m3]
298.15 K	1367.9
308.15 K	1359.3
318.15 K	1350.9

COCCOCCOCCO + CCCC[n+]1ccn(C)c1.F[P-](F)(F)(F)(F)F
mass density [kg/m3]
Conditions	298.15 K	308.15 K	318.15 K
x1 = 0.0316	–	1351.8	1343.3
x1 = 0.0902	–	1337.9	1329.4
x1 = 0.1949	1321.1	1312.7	1304.2
x1 = 0.3024	1293.8	1285.3	–
x1 = 0.4159	1262.8	1254.3	1245.9
x1 = 0.5036	1237.2	1228.6	1220.1
x1 = 0.6142	–	1193.9	1185.4
x1 = 0.7104	1169	1160.4	1151.8
x1 = 0.8085	1132.1	1123.5	1114.8
x1 = 0.9092	1089.3	–	1071.9
x1 = 0.9441	1073	1064.3	–
x1 = 0.9772	1056.7	1047.9	1039.1
x1 = 1	1044.9	1036.1	1027.3
x2 = 0.0095	1049.9	1041.1	1032.4

CCCC[n+]1ccn(C)c1.F[P-](F)(F)(F)(F)F + COCCOCCOCCOCCOC
x2 = 0
Conditions	mass density [kg/m3]
298.15 K	1367.9
308.15 K	1359.3
318.15 K	1350.9

COCCOCCO + CCCC[n+]1ccn(C)c1.F[P-](F)(F)(F)(F)F
mass density [kg/m3]
Conditions	298.15 K	308.15 K	318.15 K
x1 = 0.0949	1348.6	1340.2	1331.7
x1 = 0.1547	1336	–	1319.2
x1 = 0.2789	1307.7	1299.3	–
x1 = 0.4155	1271.8	1263.5	1254.8
x1 = 0.5056	1245	–	1227.9
x1 = 0.5799	–	1212.1	1203.4
x1 = 0.68	1183.9	1175.4	1166.6
x1 = 0.7576	1151.8	–	1134.3
x1 = 0.8526	1106.2	1097.5	1088.6
x1 = 0.9308	1061.7	1052.8	–
x1 = 0.9598	1043	1034.2	–
x1 = 1	1014.9	–	–
x2 = 0.0094	–	1012.9	1004
x2 = 0.0158	1026.2	1017.4	–

COCCOCCOCCOC + CCCC[n+]1ccn(C)c1.F[P-](F)(F)(F)(F)F
mass density [kg/m3]
Conditions	298.15 K	308.15 K	318.15 K
x1 = 0.0126	1363.9	1355.4	1347
x1 = 0.0472	–	–	1336.4
x1 = 0.1117	1333.8	1325.3	1316.9
x1 = 0.21	1303.5	–	1286.7
x1 = 0.2935	1276.7	1268.4	1260
x1 = 0.3944	1242.8	1234.5	1226
x1 = 0.5167	1199	1190.5	1181.8
x1 = 0.6161	–	1152.1	1143.3
x1 = 0.7107	1122	1113.1	1104.2
x1 = 0.7954	1084.8	–	1066.7
x1 = 0.9017	1033.9	–	1015.4
x1 = 0.9547	–	997	987.6
x1 = 0.9742	995.8	986.3	–
x1 = 1	–	–	962.3
x2 = 0.0093	986.6	977.1	–

CCCC[n+]1ccn(C)c1.F[P-](F)(F)(F)(F)F + COCCOCCO
Conditions	mass density [kg/m3]
298.15 K, x2 = 0	1367.9

CCCC[n+]1ccn(C)c1.F[P-](F)(F)(F)(F)F + COCCOCCOCCO
x2 = 0
Conditions	mass density [kg/m3]
298.15 K	1367.9
318.15 K	1350.9
